Test results as given in the supplement of paper PMC11417369.
The other results are listed elsewhere or left out.

The sequences below were run on PfHDP1 homeodomain (GST-tagged) (assay: gcPBM binding intensity (ln(normalized median fluorescence intensity)); higher = stronger DNA binding).
How it was run: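 Binding intensity values are the highest Masliner-normalised natural-log median intensity among replicate spots of either probe orientation. The binding step lasted 1 h in 1× PBS with 1% milk, 0.2 mg/ml BSA, 0.5% salmon testes DNA and 0.03% Triton X-100, using GST-tagged P. falciparum DNA-binding domains expressed in E. coli on an Agilent 4 × 180k array of primer-extended double-stranded 36-bp intergenic genomic probes plus negative controls. Alexa488 anti-GST antibody and a 488 nm scan detected bound protein.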

Sequence | gcPBM binding intensity (ln)
TATATAAATAAACACACACACACCTTATAATTATTA [CACACA_site9345] | 6.96
TTTTAGTTATTGTATTATTATTAATATATAATATCT [CACACA_negctrl_site1528] | 6.42
AAAGCATGTTAATATGTATAAATACTGATCATTCAC [GTGCAC_negctrl_site576] | 6.14
CTAAAATGTAAAAACGCACACATAATATTATAAAAA [CACACA_site2788] | 7.31
TTTTGTTATTATGAAGTGCATTTATGTTCATGTCTA | 8.03
AAAAAAAAAAAAAATTCACACAAGACTACTACATTT [CACACA_site4195] | 6.19
AAAATCTAATATAATGCACACATAAAAAAAAATCAA [CACACA_site9211] | 9.65
ATATTAATTTCTCATGCATGTTCTACCCAATTGTAA [TGCATGCA_site355] | 7.03
TATATTATATATATACTGCACTGTTTTACAAAATTA | 7.33
AATATTAAAAACAAAACACACAAAAAAAAATAAAAT [CACACA_site702] | 6.9
ACCCTTTTATATAAGAGTACAAACGTATTATTAAAT [XGTACX_site2221] | 6.49
ATATATGACTAATAAAGTACATACTTCATATAATTA [XGTACX_site6699] | 6.51
GTAGTGGTTGAATATACACACATATATATATATATA [CACACA_site2651] | 9.39
AACGTGTATTTATATTGTACACATTCATACATCAAA [XGTACX_site3644] | 6.7
AGATAATAGGTTACTTGTACATATAAATAAATATAT [XGTACX_site158] | 6.04
TGTACGAGTCGTAGAGTGCAGTCTGGAGAAAAGTAC [GTGCAC_site9683] | 7.5
TATATATATATATATACACACTTGTGCAGAATATTA [CACACA_site5257] | 9.57
AAAAAAAAAATAAAATAAAATATATTATATATATTA [GTGCAC_negctrl_site431] | 5.91
GAATAAATAATTAACACACACAATCTTTTTTTTTTT [CACACA_site3140] | 6.35

Sequence | gcPBM binding intensity (ln)
TATATATATATATATGTACACACATCAATCATATTA [CACACA_site8594] | 9.43
TCACTTTTTATTAAATGTACATGCTTTCATTTTCAT [XGTACX_site8139] | 6.78
TATTTTTTTTTTTTTTGTACACATAATTGTAATCGT [XGTACX_site8415] | 6.55
CCACAGGATTGGTTCAAACACACATATTATATGACT [CACACA_site661] | 6.55
CATATAAAAATGTGCACACACACACCGATATATATT [CACACA_site4940] | 10.8
ATATATAAATATATATGTACATAAATATATATCTTT [XGTACX_site6910] | 6.47
AAGAAAAAAAAAAAAACACACATATATATATATATA [CACACA_site2027] | 9.21
TATAAATAGAGGAAGCGTACATATATATATATATAT [XGTACX_site4993] | 9.4
TGTATACCTTAATATACACACATACCTATATTTATA [CACACA_site6746] | 6.43
GGATATTAATAAATATGTACATATGTAGATTTATTA [XGTACX_site554] | 6.51
ATAAGGTTACAACAAACACACAAAGGAATATACACA [CACACA_site7840] | 6.97
AAAATTTTTTGAAATAGTACTTTTTTATATATATAT [XGTACX_site2634] | 8.37
TTTTTCTTATTTGGATTGCACTACATATATATATAT | 9.21
GAACTCATTACAAAGTGTACAAATTAAATAAATGGT [XGTACX_site3995] | 6.69
AGGTGCTTAATATATACACACATACAGATATATATA [CACACA_site5552] | 7.19
TATAAATTTATATATGCATGTCAGAAAAAAAAGTAA [TGCATGCA_site414] | 7.17
CAACAAAATAAACACACACACACAAACACAAAAAAA [CACACA_site5806] | 6.82
TATAAATGTGTATGCGCATGTAAAAATATAATTTAT [TGCATGCA_site750] | 7.86
GTAAATAATAAACACCGTACATGGTATAATTCAATG [XGTACX_site3655] | 6.25

Sequence | gcPBM binding intensity (ln)
AAATAAATAAATAGACGTACAAAAATATTATACATT [XGTACX_site6776] | 5.96
GATATGATGTGTTTGGTAGTTTTTGATGTTGGCATG [GTGCAC_negctrl_site506] | 6.61
AATAATGAAAAAATGAATAAAATTACTATATAATTC [XGTACX_negctrl_site457] | 6.02
AACGATATATGTACTACACACATTATGTCATCCTAT [CACACA_site2464] | 6.54
CAAAAAGGAATGTATGCACACAATTGATTTTAACTC [CACACA_site1468] | 9.32
ATATATATATTATATAGTACAGAGTATACTATTATA [XGTACX_site1893] | 7.85
ACAAAAGGGGAATACACACACATATATATATATATA [CACACA_site2215] | 9.37
GATCTAAAAACAAGGTGTACAAGAAAAAAAAAAAAA [XGTACX_site7577] | 6.27
TATTTATTTATTTAATGTACAAAAGAACAAGAATTT [XGTACX_site2248] | 6.16
TATGTATATACATAAACATGCAAAAACAATATCTTA [TGCATGCA_site950] | 6.55
TTCTTCTGTTTTATTACACACCATTTTGTGTATACA [CACACA_site7059] | 7.39
TCTTAATCGTATTATTACTATAATTATATAATATTT [CACACA_negctrl_site1594] | 6.68
GGAAAAATATAATATGCATGTTATTATTTTTTTATA [TGCATGCA_site836] | 6.21
ATATATATATAATGTTGTACATAAATATTATATTTA [XGTACX_site5225] | 8.51
TTTTTATTTATTCTCTTTGTATTATAAAATAAAAGC [XGTACX_negctrl_site253] | 6.39
ACATGTGAATTTTAGGTGCACTTGTAATTTAACATT | 9.6
TTTTTTTTCAATGGCACACATTTTAGATTTATGCTT [CACACA_site4735] | 6.35
TTCTTTTATGATAATTGTACCCTTTTTAAAAAGAAA [XGTACX_site7815] | 6.68
ATAATGAAAAGAAAGGGTACAAAAAAAAAAAAAAAT [XGTACX_site3350] | 6.54
